Data: PubChem BioAssay AID485364 (National Center for Advancing Translational Sciences (NCATS), 2010)
The campaign covered roughly 360,000 compounds. About 11,000 (3.1%) were called active. The shares of active, inactive and inconclusive entries below differ from those in the screen. Calls follow the shape of the dose curve; as a rule, active = well fitted inhibition curve with a large enough effect; inconclusive = small, poorly fitted or top-dose-only effect; inactive = no such curve, though single readings can be large or run the other way. No potency is given beside an inconclusive call; the fits are too rough.
Also: nearly all actives have a fitted effect of over 60% in size.
Potency is read from the fitted curve at half-maximal effect; tags tell the direction and shape of the fitted curve.

The molecules below were run against Schistosoma mansoni thioredoxin glutathione reductase (TGR) (UniProt Q962Y6) (assay: qHTS Assay for the Inhibitors of Schistosoma Mansoni Peroxiredoxins). Conditions: purified TGR, DTNB reduction, TNB absorbance 405 nm; series mostly up to 114 µM.
In short: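 First, TGR (20 nM dispensed) and NADPH were mixed with compound. Second, a 15 min room-temperature incubation followed. Third, further NADPH and then DTNB were added to start the reaction. Finally, TNB absorbance was monitored kinetically.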
`CCOC(=O)c1ccc(N=c2scc(C)n2CC)cc1` was tested, and the Potency was “inactive”.
With `Cc1cccc(N2C(=O)NC(=O)/C(=C\c3cc(C)n(-c4sc5c(c4C#N)CCCC5)c3C)C2=O)c1C` the Potency was inconclusive [inhibitor, partial curve].
In the case of `COc1ccc(-n2c(NC(=O)c3ccco3)c(C#N)c3nc4ccccc4nc32)cc1`, the Potency is reported as inconclusive [inhibitor, full curve, poor fit].
With `COc1ccc(S(=O)(=O)NCCc2sc(-c3cccnc3)nc2C)cc1OC` the Potency was “inactive”.
`COc1ccc(Nc2nc(-c3sc(NC(C)=O)nc3C)cs2)cc1` was tested, and the Potency was inconclusive [inhibitor, partial curve].
In the case of `COc1ccc(NC(=O)CSc2oc(-c3ccco3)nc2S(=O)(=O)c2ccc(C)cc2)c(OC)c1`, the Potency is reported as inconclusive [inhibitor, partial curve].
In the case of `COc1ccc(-c2cn3cc(Cl)ccc3n2)cc1OC`, the Potency is reported as inconclusive [inhibitor, single point].
With `COc1cccc(C2CCCN2Cc2nc(-c3sccc3C)oc2C)c1` (configuration not stated) the Potency was inconclusive [inhibitor, partial curve].
In the case of `Cc1cccc(OCC(=O)NNC(=O)CCCCC(=O)NNC(=O)COc2cccc(C)c2)c1`, the Potency is reported as “inactive”.
For `O=[N+]([O-])c1ccc(Oc2ccc(F)cc2)c2ccncc12`, the Potency was “inactive”.
In the case of `CCc1ccc2[nH]c(=O)c(CN(Cc3ccccc3OC)Cc3nnnn3Cc3ccco3)cc2c1`, the Potency is reported as inconclusive [inhibitor, partial curve].
`CCCOc1ccc(/C(O)=C2\C(=O)C(=O)N(c3ccccn3)C2c2ccccc2F)cc1C` (configuration not stated) was tested, and the Potency was inconclusive [inhibitor, partial curve, poor fit].
In the case of `CC1(c2ccc3ccccc3c2)NC(=O)N(CC(=O)N2CCCC(C(F)(F)F)C2)C1=O` (configuration not stated), the Potency is reported as “inactive”.
`O=C(N/N=C/C=C/c1ccco1)/C(=C/c1ccccc1)NC(=O)c1ccccc1` was tested, and the Potency was active: 44.7 µM.
`CC1(C)CN(c2ccccc2)N(C(=O)c2ccc(F)cc2)C1=O` was tested, and the Potency was “inactive”.
In the case of `O=C(CCl)N(Cc1ccccc1)c1ccccc1`, the Potency is reported as active: 5.01 µM.
With `COc1ccc(NC(=O)c2csnn2)cc1Cl` the Potency was “inactive”.
`COC(=O)c1c(C)n(Cc2ccccc2)c2ccc(O)cc12` was tested, and the Potency was inconclusive [inhibitor, partial curve].
With `O=C(O)CCCC(=O)Nc1ccc(N2CCCC2)cc1` the Potency was “inactive”.
In the case of `CC(=O)c1cccc(NC(=S)NC2CC2)c1`, the Potency is reported as active: 39.8 µM.
`Cc1ccc(N=Cc2ccc(O)cc2O)cc1F` was tested, and the Potency was inconclusive [inhibitor, full curve].
With `COC(=O)CN1C(=O)[C@H]2[C@@H](c3ccc(C)o3)N3C(=O)CN(Cc4ccccn4)C(=O)[C@@]3(Cc3ccccc3)[C@H]2C1=O` the Potency was inconclusive [inhibitor, full curve, poor fit].
For `CN1C(=O)C(=Cc2ccc(N3CCOCC3)o2)C(=O)N(C)C1=O`, the Potency was inconclusive [inhibitor, partial curve].
`CN(C)C/C=C/C(O)(c1ccccc1)c1ccccc1` was tested, and the Potency was “inactive”.
With `Oc1ccc(Cn2ccnc2)c2cccnc12` the Potency was active: 22.4 µM.
`CCCCn1c(N)c(N(CC(C)C)C(=O)c2cc(S(=O)(=O)N3CCOCC3)ccc2Cl)c(=O)[nH]c1=O` was tested, and the Potency was “inactive”.
With `c1ccc2c(CCNCc3ccc4c(c3)OCO4)c[nH]c2c1` the Potency was inconclusive [inhibitor, partial curve].
In the case of `O=C(NCCN1CCCCC1)c1cc(Cl)ccc1Cl`, the Potency is reported as “inactive”.
In the case of `O=C(c1cc(COc2cccc(C(F)(F)F)c2)on1)N1CCC(c2ccccc2)CC1`, the Potency is reported as inconclusive [inhibitor, full curve, poor fit].
With `Cc1cc(=O)oc2cc(OCC(=O)OCC(=O)NCCc3ccccc3)ccc12` the Potency was “inactive”.
In the case of `O=C(CCn1cccc1)Nc1cc(F)ccc1F`, the Potency is reported as inconclusive [inhibitor, full curve, poor fit].
`CCc1cc(/C(Cc2ccccn2)=N\Nc2ccccc2)c(O)cc1O` was tested, and the Potency was inconclusive [inhibitor, full curve].
`Cc1ccc(-c2nnn(CC(=O)N(c3cccc(F)c3)C(C(=O)NC(C)(C)C)c3ccco3)n2)o1` (configuration not stated) was tested, and the Potency was inconclusive [inhibitor, partial curve].
For `Cc1ccc(-n2ncc3c(=O)n(CC(=O)NC4CCCC4)cnc32)cc1C`, the Potency was inconclusive [inhibitor, full curve, poor fit].
With `C/C=C/C=C\C(=O)Nc1cccc(C2=NOC3(C2)C[C@@H](C(N)=O)N(C(=O)/C(C)=C/C)C3)c1` (some centres not stated) the Potency was active: 2.51 µM.
In the case of `COC(=O)c1c(C)n(-c2ccccc2)c2ccc(O)cc12`, the Potency is reported as “inactive”.
`O=C(Nc1cccn(Cc2c(Cl)cccc2Cl)c1=O)c1ccc(Cl)cc1Cl` was tested, and the Potency was “inactive”.
In the case of `COc1ccc(NC(=O)C2CCN(C3=NS(=O)(=O)C(c4ccc(C)c(C)c4)=C3C)CC2)c(OC)c1`, the Potency is reported as “inactive”.
For `Cc1c(C(=O)N2CC(C)OC(C)C2)sc2nc(-c3ccccc3)cn12` (configuration not stated), the Potency was inconclusive [inhibitor, full curve, poor fit].
In the case of `O=C(NCc1ccco1)C1CC(=O)N(CCc2ccccc2)C1` (configuration not stated), the Potency is reported as “inactive”.
With `COc1ccc(S(=O)(=O)N2CCN(c3ccc(F)cc3)CC2)cc1OC` the Potency was “inactive”.
In the case of `COc1ccc(CN2CC(C(=O)NCCCN3CCN(C)CC3)CC2=O)cc1` (configuration not stated), the Potency is reported as “inactive”.
`Cc1c(Br)c(O)c(Br)c(O)c1/C=N/n1c(-c2ccccc2)n[nH]c1=S` was tested, and the Potency was active: 35.5 µM.
In the case of `CN1CCN(C(CNS(=O)(=O)c2ccc([N+](=O)[O-])cc2)c2ccc(F)cc2)CC1` (configuration not stated), the Potency is reported as “inactive”.
With `COc1ccc(Cn2c(C)c(C)c(C#N)c2NC(=O)Nc2ccc(F)cc2)cc1` the Potency was inconclusive [inhibitor, single point].
`COc1c(C=C2C(=O)NC(=O)NC2=O)c(CCN(C)C(=O)c2ccccc2)cc2c1OCO2` was tested, and the Potency was inconclusive [inhibitor, full curve, poor fit].
`Cc1ccc(-n2nc3c(c2NC(=O)c2ccc(Br)o2)CSC3)c(C)c1` was tested, and the Potency was inconclusive [inhibitor, partial curve].
